The values below come from PubChem BioAssay AID463173 (ICCB-Longwood Screening Facility, Harvard Medical School, 2010).

SMILES strings stand for the structures. Screen size: about 52,000 compounds; about 4,300 (8.3%) were called active. No stated cut-off is given here; in the data, active means survival mostly below about 52% (no sharp cut-off); inactive means mostly above about 56%. The list shows a part of the results.

This assay has as its system DeltatarO mutant. As to the kind of experiment: growth inhibition of S. aureus wild type versus tarO mutant, primary screen, teichoic acid synthesis inhibitors, RN4220, OD600 (AID 463173). The settings on record: OD600, 18 h, stronger effect = lower value, screened at 18.75 µg/mL (by protocol).
As to `Cc1c(CNC2CCCCCC2)c(C(=O)O)c(C)n1Cc1cccc(Cl)c1`, the survival was inactive: 123%.
With `Cc1cccc(CNC(=O)Cn2nc(C)c3nn(-c4ccc(Cl)cc4)c(C)c3c2=O)c1` the figure was inactive: 55%.
For `O=C(CSc1nc(Nc2ccccc2)c2ccccc2n1)c1ccc(Cl)cc1` the value was inactive: 84%; for `Cc1ccccc1Nc1c(-c2c[nH]c3ccccc23)nc2ccc(Cl)cn12`, inactive: 115%; for `Cc1cc(C)cc(NC(=O)NCc2c(-n3cccc3)sc3c2CCCC3)c1`, inactive: 101%.
With `Cc1cccc(OC(=O)CSc2nnc(-c3cccs3)o2)c1C` the figure was inactive: 71%; with `Cc1ccc(-n2ncc(C(=O)N3CCN(c4ccccc4F)CC3)c2C2CCN(C(=O)OC(C)(C)C)CC2)cc1C`, inactive: 71%.
Regarding `CSc1ncc(Cl)c(C(=O)Nc2c(C(=O)c3ccc(Cl)cc3)oc3ccccc23)n1`, the survival was inactive: 71%.
In the case of `CCOC(=O)c1c(S(=O)(=O)N2CCCC(C(=O)Nc3cccc(CC)c3)C2)c(C)n(CC)c1C` (configuration not stated), the survival was inactive: 102%.
`Cc1c(NC(=O)Cc2ccc(Cl)cc2)cccc1-c1nc2cccnc2s1`: the survival was inactive: 114%.
For `CCOc1ccc(CNC(=O)c2ccc(NC(=O)N3CCCCc4ccccc43)cc2)cc1`, the survival is inactive: 89%.
Turning to `CCOC(=O)c1c(C)[nH]c(C)c1S(=O)(=O)NCC(=O)Nc1cccc(Cl)c1`, the survival was inactive: 87%.
As to `O=C(NCCc1cccs1)c1ccc(Cn2c(SCc3cccc(F)c3)nc3cccnc32)cc1`, the survival was inactive: 79%.
With `Fc1cccc(CN2CCc3nc(Nc4ccc5c(c4)OCCO5)ncc3C2)c1F` the figure was inactive: 91%.
As for `Cc1ccccc1S(=O)Cc1ccc(C(=O)NCc2ccccc2Cl)o1` (configuration not stated), the survival was inactive: 73%.
With `COc1ccc(-c2csc3ncnc(Nc4ccccc4)c23)cc1` the figure was inactive: 107%; with `Cc1ccc(CSC2=NC(C)(C)Nc3ccccc32)c(C)c1`, inactive: 98%.
For `O=C(Cn1cc(C(=O)c2ccco2)c2ccccc21)Nc1ccccc1C(F)(F)F` the value was inactive: 74%; for `COc1ccc(-c2noc(N3CCC(C(=O)N4CCN(c5cccc(OC)c5)CC4)CC3)n2)cc1`, inactive: 84%.
For `CCOc1ccccc1NC(=O)Cn1c(=O)oc2ccccc21`, the survival was inactive: 101%.
With `CCOC(=O)c1c(-c2ccccc2)oc2ccc(OCc3ccccc3Br)cc12`, the survival is active: 38%.
For `COc1ccc(NC(=O)Cn2cc(C(=O)c3ccc(C)c(C)c3)c(=O)c3cc(OC)ccc32)cc1`, the survival was inactive: 72%.
With `COC(=O)c1scc(-c2ccc(C)cc2)c1S(=O)(=O)Nc1cc(C)c(Cl)cc1OC` the figure was inactive: 117%.
Take `Clc1cccc(CNCCCSc2nnnn2-c2ccccc2)c1`: the survival is inactive: 68%.
On to `Cc1cc(C)c(C#N)c(N2CCC(C(N)=O)CC2)n1`, for which the survival is inactive: 90%.
With `Cc1cccc(N2CCN(C(=O)CCS(=O)(=O)c3ccc4c(c3)CC(=O)N4C)CC2C)c1` (configuration not stated) the figure was active: -2%; with `Cc1cccc(C(c2sc3nc(-c4ccco4)nn3c2O)N2CCOCC2)c1` (configuration not stated), inactive: 86%; with `CCCCOC(=O)c1ccc(NC(=O)c2ccc3c(c2)CCN3S(C)(=O)=O)cc1`, inactive: 96%.
For `CC(=O)N1CCN(c2csc3ccc(Cl)cc3c2=O)CC1` the value was inactive: 95%.
With `Cc1ccc(NS(=O)(=O)c2ccc3c(c2)n(C)c(=O)n3C)c(C)c1` the figure was inactive: 86%; with `CCCCCCN1C(=O)c2ccc(Br)cc2C1=O`, inactive: 101%; with `Cc1ccc(NC(=O)Cn2cc3c(n2)CCCC3)cc1Cl`, inactive: 87%.
Consider `COc1ccc(C)c2sc(N(Cc3cccnc3)C(=O)c3cccs3)nc12`, for which the survival was inactive: 88%.
For `CCN1CCc2c(sc(-n3cccc3)c2C(C)NC(=O)Nc2ccc(C(=O)OC)cc2)C1` (configuration not stated) the value was inactive: 94%; for `COc1ccc(CNS(=O)(=O)c2ccc(-c3cc(C(F)(F)F)on3)s2)cc1OC`, inactive: 118%; for `COc1ccc(CNC(=O)c2nn(C)c3c2CSc2ccccc2-3)cc1`, inactive: 73%.
As for `O=C(Nc1cccc(F)c1)c1cnc2sc(N3CCCC3)nn2c1=O`, the survival is inactive: 71%.
For `COc1cc(C2C=C(C(=O)O)Nc3ncnn32)ccc1O` (configuration not stated), the survival is inactive: 88%.
Consider `CCOc1ccc2c(c1)c(=O)c(C(=O)c1ccc(CC)cc1)cn2CC(=O)Nc1ccc2c(c1)OCCO2`, for which the survival is inactive: 65%.
With `O=C(CSCCO)N1CCc2ccccc21` the figure was inactive: 102%; with `COc1cccc(NC(=O)Cn2c(=O)n(CCC(=O)NCc3ccccc3OC)c(=O)c3ccccc32)c1`, inactive: 72%; with `COc1ccc(Cl)cc1NC(=O)Cn1c(=O)n2nc(-c3ccccc3)nc2c2ccccc21`, inactive: 78%.
For `Cc1ccccc1C(=O)NC1CCN(Cc2nnnn2Cc2ccccc2)CC1` the value was inactive: 87%; for `CCc1cccc(C)c1Nc1nn2c(=O)c3ccccc3nc2s1`, inactive: 94%; for `COc1ccc(N(C)S(=O)(=O)c2ccc3c(c2)CCN3C(=O)CCC(=O)O)cc1`, inactive: 87%.
As to `CCOC(=O)c1ccc(N2C(=O)c3n[nH]c(-c4ccco4)c3C2c2ccccc2OC)cc1` (configuration not stated), the survival is inactive: 53%.
As for `COc1ccc(NC(=O)c2ccco2)cc1NC(=O)c1ccccc1[N+](=O)[O-]`, the survival is inactive: 49%.
For `Cc1ccc(NC(=O)Cn2c(=O)n(Cc3ccccc3)c(=O)c3c(C)c(C(=O)N(C)C)sc32)c(C)c1` the value was inactive: 78%.
For `COc1ccc(-c2noc(CN(C(=O)c3ccc(C)cc3C)C(C)C)n2)cc1` the value was active: -3%; for `Cc1ccc(C(=O)NCCc2csc(-c3cccc(F)c3)n2)cc1C`, inactive: 99%.
Consider `CCN(C(=O)c1c(C)oc2ncnc(N3CCCCC3)c12)c1cc(C)ccc1C`, for which the survival was inactive: 95%.
Regarding `COc1ccc(C2CC(=O)Nc3c2c(C)nn3-c2nncc(-c3ccccc3)n2)c(OC)c1OC` (configuration not stated), the survival is inactive: 52%.
For `COc1cc2nc(NCCc3cccc(C)c3)n3nc(-c4ccccc4)nc3c2cc1OC` the value was inactive: 59%; for `CCOC(=O)c1cccc(NC(=O)COc2ccc3c(C)cc(=O)oc3c2)c1`, inactive: 70%; for `CCOC(=O)c1cnc2c(ccc3ccccc32)c1Nc1ccccc1O`, inactive: 69%.
Regarding `Cc1cc(=O)n2nc(N3CCC(C(=O)Nc4ccc(Br)c(C)c4)CC3)sc2n1`, the survival is inactive: 102%.
With `CCOC(=O)CSc1nc(-c2cccnc2)nn1C(=O)c1ccccc1` the figure was inactive: 79%.
